In PubChem BioAssay AID2685 (National Center for Advancing Translational Sciences (NCATS), 2010):
Out of some 320,000 compounds screened, about 2,100 (0.66%) were called active. Inconclusive results (about 53%) are left out. Calls come from the whole dose curve; as a rule, active = well fitted inhibition curve with a large enough effect in the signal ratio, with a control signal flat (not every such curve was filed as active); inconclusive = small, poorly fitted or top-dose-only effect, or effect the other way, or a change in a side signal; inactive = flat fitted curve, though single readings scatter; the % refers to the signal ratio. Where a structure was tested more than once in an assay, its records may differ in their call. Certain results were filed several times, with different values. They are shown here; other results are not. There may be further records. Results that share an entry are repeated measurements across runs, samples, wells, individuals or studies. Brackets tell where a record comes from. Letters count within one entry.

Assay: qHTS Assay for Lipid Storage Modulators in Drosophila S3 Cells
Conditions: BODIPY lipid droplet fluorescence, 18-24 h, cells fed with added oleic acid; series mostly up to 46.1 µM
Potency is the fitted concentration of half-maximal effect.

| SMILES | Potency |
| --- | --- |
| O[C@@H]1CCCC[C@H]1N1CCC(c2ccccc2)CC1 | active: 2.59 µM [sample A] and inactive [sample B] |
